Source: the supplement of paper PMC7826260
Some of the results follow. The data describe in vitro nicking of single-stranded DNA by Rep domains for 1 h at 37 °C with 3 µM enzyme; only the middle of the 90-letter strands is printed. Values are log2 of uncut reads against the no-enzyme pool; the lower, the more was cut; hits are not called. Shares of all reads are compared; where an enzyme cuts many sequences, the uncut ones exceed 0.

Key:
Test in all cases: uncleaved DNA left, log2 of reads against the no-enzyme library (log2 ratio); higher = less cleavage (more negative = more Rep cleavage of the k-mer); sequences stand for … in CTCGTCCG…ACCGGAGA
[1] = system: T1, Rep nickase domain of Muscovy duck circovirus
T1 sequence (residues 1-111, tag not shown): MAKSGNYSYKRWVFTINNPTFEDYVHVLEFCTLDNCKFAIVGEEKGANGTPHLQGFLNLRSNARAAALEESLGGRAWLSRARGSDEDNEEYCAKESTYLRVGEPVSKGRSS
Description: (§1)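 A pool of 90-nt single-stranded DNAs with seven random bases just before the constant AC of the nick site (name = the seven bases) was cut by 3 µM recombinant His6-SUMO-tagged Rep nickase domain (300 nM DNA, 50 mM HEPES pH 8.0, 50 mM NaCl, 1 mM MnCl2, 1 h, 37 °C, three replicates). Uncut DNA was amplified and sequenced.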

[2] = system: T2, Rep nickase domain of banana bunchy top virus
T2 sequence (residues 1-94, tag not shown): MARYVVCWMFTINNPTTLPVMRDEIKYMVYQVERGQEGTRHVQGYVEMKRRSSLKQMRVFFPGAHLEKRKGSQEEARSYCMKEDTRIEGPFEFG
Description: as §1

[3] = system: T3, Rep nickase domain of cabbage leaf curl virus
T3 sequence (residues 1-116, tag not shown): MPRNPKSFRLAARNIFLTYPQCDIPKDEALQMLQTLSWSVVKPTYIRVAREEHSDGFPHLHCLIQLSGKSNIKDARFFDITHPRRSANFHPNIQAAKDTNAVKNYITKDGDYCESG
Description: as §1

[4] = system: T4, Rep nickase domain of chickpea chlorotic dwarf virus
T4 sequence (residues 1-124, tag not shown): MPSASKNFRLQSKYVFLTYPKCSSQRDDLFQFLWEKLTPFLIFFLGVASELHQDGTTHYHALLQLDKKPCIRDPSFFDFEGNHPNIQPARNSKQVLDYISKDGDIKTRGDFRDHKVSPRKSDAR
Description: as §1

[5] = system: T5, Rep nickase domain of faba bean necrotic yellows virus
T5 sequence (residues 1-98, tag not shown): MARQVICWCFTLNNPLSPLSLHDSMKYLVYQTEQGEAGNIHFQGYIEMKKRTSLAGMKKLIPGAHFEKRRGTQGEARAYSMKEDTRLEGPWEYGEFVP
Description: as §1

[6] = system: T6, Rep nickase domain of maize striate mosaic virus
T6 sequence (residues 1-117, tag not shown): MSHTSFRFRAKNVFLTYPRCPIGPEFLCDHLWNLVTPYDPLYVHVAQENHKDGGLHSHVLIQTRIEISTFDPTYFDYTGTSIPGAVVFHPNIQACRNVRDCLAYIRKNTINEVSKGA
Description: as §1

[7] = system: T7, Rep nickase domain of porcine circovirus 2
T7 sequence (residues 2-116, tag not shown): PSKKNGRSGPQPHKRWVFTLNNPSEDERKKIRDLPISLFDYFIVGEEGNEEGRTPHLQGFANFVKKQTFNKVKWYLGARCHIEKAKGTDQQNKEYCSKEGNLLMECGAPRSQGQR
Description: as §1

[8] = system: T8, Rep nickase domain of tomato golden mosaic virus
T8 sequence (residues 1-124, tag not shown): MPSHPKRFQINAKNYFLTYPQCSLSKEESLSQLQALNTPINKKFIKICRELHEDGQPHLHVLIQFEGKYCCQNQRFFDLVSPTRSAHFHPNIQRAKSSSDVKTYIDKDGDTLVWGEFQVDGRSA
Description: as §1

[9] = system: T9, Rep nickase domain of tomato yellow leaf curl virus
T9 sequence (residues 1-136, tag not shown): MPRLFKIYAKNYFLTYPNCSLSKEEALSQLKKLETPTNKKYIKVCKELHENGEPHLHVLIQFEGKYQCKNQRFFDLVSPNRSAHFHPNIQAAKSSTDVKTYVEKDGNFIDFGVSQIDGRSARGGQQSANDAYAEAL
Description: as §1

[10] = system: T10, Rep nickase domain of wheat dwarf virus
T10 sequence (residues 1-137, tag not shown): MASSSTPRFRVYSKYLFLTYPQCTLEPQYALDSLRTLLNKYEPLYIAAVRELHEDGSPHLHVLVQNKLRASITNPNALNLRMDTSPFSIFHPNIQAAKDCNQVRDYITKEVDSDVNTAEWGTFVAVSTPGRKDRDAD
Description: as §1

Row | Sequence | uncleaved DNA left (log2) [1] | uncleaved DNA left (log2) [2] | uncleaved DNA left (log2) [3] | uncleaved DNA left (log2) [4] | uncleaved DNA left (log2) [5] | uncleaved DNA left (log2) [6] | uncleaved DNA left (log2) [7] | uncleaved DNA left (log2) [8] | uncleaved DNA left (log2) [9] | uncleaved DNA left (log2) [10]
1 | GTTCGAA | 0.00631 | 0.0336 | 0.16 | 0.786 | -0.0578 | 1.56 | 0.00404 | 0.0736 | 0.0304 | -0.0177
2 | GAGCAAT | 0.148 | 0.0746 | 0.362 | 0.937 | -0.0112 | 1.39 | -1.82 | 0.0741 | 0.134 | 0.177
3 | AGAATAA | -0.116 | -0.176 | -0.14 | -0.048 | -0.0222 | -0.377 | -0.163 | 0.0309 | -0.192 | -0.0362
4 | CTCCCAG | 0.0283 | -0.0278 | -0.689 | -0.561 | 0.126 | -0.947 | 0.12 | -0.0378 | 0.00698 | 0.00198
5 | TCGCCGG | -0.0848 | 0.0842 | 0.458 | 1.25 | -0.0562 | 1.78 | 0.0313 | 0.0708 | -0.162 | -0.109
6 | TGTGTGT | 0.197 | 0.0126 | -0.111 | -0.508 | 0.0593 | -0.658 | -0.00297 | -0.00268 | 0.115 | 0.0131
7 | AAATAGG | 0.0312 | -0.0235 | 0.000682 | 0.674 | -0.0191 | -0.18 | -0.0157 | -0.00611 | -0.0841 | -0.0275
8 | GCTCGCA | 0.0244 | -0.0151 | -0.0602 | 0.23 | -0.0964 | -0.546 | 0.0636 | 0.0354 | -0.0566 | -0.0627
9 | GAGGGGC | 0.0299 | -0.0307 | 0.664 | 1.18 | 0.0168 | 1.74 | 0.0581 | 0.0341 | -0.063 | 0.0357
10 | CATGGTC | -0.0317 | -0.0742 | -0.0359 | -0.0637 | -0.0926 | -0.591 | -0.1 | -0.0125 | -0.0748 | -0.0374
11 | TCTTTAC | 0.173 | 0.012 | 0.0881 | -1.58 | 0.0488 | -0.318 | -0.0014 | 0.107 | 0.0491 | 0.158
12 | TTGTTGC | 0.101 | 0.0137 | -0.669 | -0.231 | -0.00171 | -0.849 | 0.0691 | -0.0764 | 0.0146 | -0.163
13 | AAGAGTA | 0.063 | 0.00306 | 0.0564 | -0.134 | 0.127 | 0.685 | -1.1 | 0.124 | -0.0916 | 0.0505
14 | CCGCACT | 0.165 | 0.0552 | -0.0589 | -1.55 | -0.043 | -0.323 | -0.207 | 0.0863 | -0.0886 | -0.0225
15 | AATTGCC | -0.169 | -0.147 | -0.794 | -0.11 | -0.0629 | -1.02 | 0.00036 | -0.206 | -0.0122 | -0.136
16 | TCGCATA | -0.0671 | -0.0635 | -0.0419 | -0.847 | -0.0637 | -0.575 | -0.251 | -0.118 | -0.0878 | -0.148
17 | TAGATCC | -0.0364 | -0.017 | 0.113 | 0.025 | 0.0403 | 0.262 | -0.13 | -0.0261 | 0.0274 | 0.105
18 | CCATATT | -3.94 | -2.63 | -3.4 | -3.27 | -0.481 | -2.15 | -4.09 | -2.44 | -0.179 | -2.02
19 | AAGTCCC | 0.0858 | -0.0875 | 0.115 | -0.519 | -0.0121 | 0.0132 | -2.95 | 0.00727 | -0.0332 | 0.105
20 | ACAGCTA | -0.168 | -0.0612 | -0.355 | -1.37 | -0.00109 | -0.836 | -0.0565 | 0.0971 | -0.0254 | -0.00812
21 | GGGCAAT | 0.0807 | 0.0907 | 0.861 | 2.01 | 0.0519 | 2.32 | 0.16 | 0.0512 | -0.0356 | 0.162
22 | GAACCCG | -0.173 | -0.0887 | -0.814 | -1.05 | -0.0543 | -0.917 | -0.981 | -0.128 | -0.0213 | -0.205
23 | TTCTCAA | 0.184 | 0.115 | 0.21 | 0.341 | 0.0155 | 0.27 | 0.0652 | 0.00137 | 0.169 | 0.101
24 | TGATTAT | -0.858 | 0.102 | 0.272 | -0.443 | 0.115 | 0.0765 | -1.13 | 0.0489 | 0.076 | -0.0302
25 | GGTTTGG | 0.0957 | 0.0431 | 0.183 | 0.447 | 0.0452 | 0.0019 | 0.0604 | 0.111 | 0.0802 | 0.048
26 | TTCTCGG | -0.118 | 0.0617 | 0.531 | 1.49 | -0.196 | 2 | 0.111 | 0.109 | -0.129 | -0.0644
27 | GGAACCC | -0.000207 | 0.0994 | 0.641 | 1.34 | 0.0293 | 1.98 | -0.0366 | 0.102 | 0.162 | 0.166
28 | GTGTGGT | -0.08 | -0.0805 | 0.328 | 0.762 | 0.00634 | 1.3 | -1.39 | 0.105 | 0.0268 | 0.0543
29 | AGCCCTA | 0.126 | 0.0569 | 0.723 | 1.19 | 0.0172 | 1.66 | 0.0526 | 0.0462 | 0.0933 | 0.243
